According to PubChem BioAssay AID624418 (National Center for Advancing Translational Sciences (NCATS), 2012):
Screen size: about 410,000 compounds; about 530 (0.13%) were called active. Inconclusive means that the source gave no clear call. Such entries were picked first, then a sample of the others. Calls come from the whole dose curve; as a rule, active = well fitted inhibition curve with a large enough effect; inconclusive = small, poorly fitted or top-dose-only effect, or another doubt; inactive = no such curve, though single readings can be large or run the other way. Potencies of inconclusive entries are doubtful fits and often do not repeat.

Test: qHTS of GLP-1 Receptor Inverse Agonists: Cytotox Screen
Conditions: HEK293 cAMP-luciferase reporter cells, luminescence, 24 h; activity change, negative = inhibition: at 38.3 µM (top of the series) unless noted
Summary of the method: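 Luminescence readout: signal drop marks cytotoxicity. Plated cells grew 12 h at 37 °C, 5% CO2, received 23 nL compound for 24 h, then got luciferase reagent, read after 12 min at RT.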
% is set by controls: 0 for no effect and ±100 for the full control effect; potency is the fitted concentration of half-maximal effect.

SMILES | Potency | activity change, negative = inhibition
CC(C)C[C@@H](CN1CCC[C@H]1CN1C(=O)C(=O)NC[C@@H]1Cc1ccccc1)N1C[C@H](Cc2ccc(O)cc2)N(CC2CCCCCC2)C(=O)C1=O | inconclusive: 28.2 µM [inhibitor, single point] | 
COC1CCCN(C(=O)c2ccc3oc(Cc4ccc(Cl)cc4)nc3c2)C1 (centres undefined) |  | inactive: -19.2%
Cc1ccc2c(CNCc3ccccc3)cc(=O)oc2c1 | inconclusive: 11.2 µM [inhibitor, single point] | 
Cc1cc(C)cc(NC(=O)[C@H](NC(=O)[C@@H]2Cc3ccccc3CN2)c2ccccc2)c1 | inconclusive: 10 µM [inhibitor, single point] | 
Nc1ccc2c(c1)C(=NO)c1cc([N+](=O)[O-])ccc1-2 | inconclusive: 15.8 µM [inhibitor, partial curve, poor fit] | 
COc1cccc(NC(=O)c2cccc(N3C(=O)C4CCC(C)CC4C3=O)c2)c1 (centres undefined) |  | inactive: 3.37%
Cc1ccccc1NS(=O)(=O)c1ccc2[nH]cc(C(=O)NC(C)c3ccccc3)c(=O)c2c1 (centres undefined) |  | inactive: -12.3%
CC1=CC(C)(C)n2c(O)c(N=NC(N)=S)c3c(C)c(C)cc1c32 |  | inactive: 5.44%
O=C1Nc2ccccc2/C1=C/c1ccccc1F | inconclusive: 31.6 µM [inhibitor, single point] | 
COC(=O)[C@@]1(Cc2ccccc2)[C@@H]2C(=CC(=O)[C@H]2CC(=O)C(=O)N(C)C)CN1C(=O)c1ccccc1 | inconclusive: 0.501 µM [inhibitor, full curve, poor fit] | 
COc1ccccc1CCNC(=O)C(=O)NCC(c1cccs1)S(=O)(=O)c1ccc(C)cc1 (centres undefined) |  | inactive: -4.98%
CC(OC(=O)CSc1ccc([N+](=O)[O-])cc1)C(=O)NCc1ccccc1 (centres undefined) | inconclusive: 22.4 µM [inhibitor, single point] | 
Cc1cc2cc(CNC(=S)NC3CCCCC3)ccc2n1C | inconclusive: 28.2 µM [inhibitor, single point] | 
CCCc1nnc(NC(=O)Cn2c(=O)oc3cc(Br)ccc32)s1 |  | inactive: -3.67%
CCC1CCCCN1CCCNC(=O)C(C)n1nc(C)c2sc3ccccc3c2c1=O (centres undefined) | inconclusive: 22.4 µM [inhibitor, single point] | 
C=CC[n+]1c(-c2ccc(Cl)cc2Cl)csc1Nc1ccc(NC(C)=O)cc1 | inconclusive: 10 µM [inhibitor, partial curve] | 
O=C(NCc1cccnc1)/C(=C/c1ccc(-c2ccc(Cl)cc2)o1)S(=O)(=O)c1ccccc1 | inconclusive: 8.91 µM [inhibitor, partial curve, poor fit] | 
CCCN(CC1CC1)C(=S)NC(=O)c1cc(Br)ccc1Cl | active: 3.16 µM | 
CCOC(=O)c1c(C)oc2ccc(O)c(CN3CCCCC3)c12 | inconclusive: 17.8 µM [inhibitor, single point] | 
C/C(=N\Nc1nc(C)c(C)s1)c1ccc([N+](=O)[O-])cc1 | inconclusive: 12.6 µM [inhibitor, partial curve, poor fit] | 
O=Nc1onc(-c2ccc([N+](=O)[O-])cc2)c1NO | inconclusive: 28.2 µM [inhibitor, single point] | 
CN(C)c1nc(NCc2ccccc2)nc(N/N=C/c2cccc(Br)c2)n1 | inconclusive: 14.1 µM [inhibitor, single point] | 

SMILES | Potency | activity change, negative = inhibition
O=C(COc1ccc(Cl)cc1Cl)Nc1c(-c2cccs2)nc2ccccn12 | inconclusive: 7.94 µM [inhibitor, partial curve] | 
FC(F)(F)c1nc2ccccc2nc1N/N=C/c1ccc(Cl)cc1 | inconclusive: 11.2 µM [inhibitor, single point] | 
COc1ccc(-c2oc3ccccc3c(=O)c2OC(=O)c2ccc(C)cc2)cc1 |  | inactive: 108%
COC(=O)c1ccc(NC(=S)NCCc2ccccc2)cc1 | inconclusive: 31.6 µM [inhibitor, single point] | 
O=C(C[C@@H]1C/C=C/CC[C@H](Cc2ccc(F)cc2)C(=O)OC[C@@H](Cc2ccccc2)NC1=O)N[C@H](CO)Cc1ccccc1 | inconclusive: 28.2 µM [inhibitor, single point] | 
Cc1cccc(NC(=O)CSc2nc3nc4c(cc3c(=O)n2-c2ccccc2)CCCC4)c1 | inconclusive: 11.2 µM [inhibitor, single point] | 
Cc1ccc([C@H]2C[C@H](n3cc(C4CC4)nn3)[C@@H](O)CN2CC2CCCCC2)cc1 | inconclusive: 28.2 µM [inhibitor, single point] | 
O=S1(=O)CCOC[C@H](CC2CCCCC2)N1Cc1ccc(F)cc1 | inconclusive: 28.2 µM [inhibitor, single point] | 
COc1ccc(CCC(C)N2CCC(Oc3ccc(C(=O)N4CCCC4)cc3)CC2)cc1 (centres undefined) | inconclusive: 28.2 µM [inhibitor, single point] | 
CCOCCN1CCN(C2c3ccccc3CSc3ccccc32)CC1 (centres undefined) | inconclusive: 10 µM [inhibitor, partial curve, poor fit] | 
FC(F)(F)c1cccc(-c2cc3nc(NC4CCCCC4)ccn3n2)c1 | inconclusive: 20 µM [inhibitor, single point] | 
CCOc1ccc(CNC(=O)CCCn2c(=O)c3cccn3c3ccccc32)cc1 |  | inactive: 19.3%
Cc1ccc(NC(=O)COc2ccccc2C#N)cc1S(=O)(=O)N1CCCCCC1 | inconclusive: 3.98 µM [inhibitor, partial curve, poor fit] | 
COc1cccc(C(=O)O/N=C(\N)Cc2ccc(Cl)cc2)c1 | inconclusive: 28.2 µM [inhibitor, single point] | 
COc1ccc(C(=O)Oc2cc(C(=S)N3CCOCC3)ccc2OC)cc1 | inconclusive: 28.2 µM [inhibitor, single point] | 
CN(C(=O)/C=C/c1ccc([N+](=O)[O-])s1)c1ccccc1 | inconclusive: 14.1 µM [inhibitor, single point] | 
COc1cc(NC(=S)NCc2ccc(S(N)(=O)=O)cc2)c(OC)cc1Cl |  | inactive: 14.4%
O=C(O)c1ccc(COc2ccccc2/C=C2\NC(=O)N(Cc3ccccc3F)C2=O)cc1 |  | inactive: -22.3%
O=C(Nc1cccc2c1CCCC2)c1ccncc1 | inconclusive: 10 µM [inhibitor, single point] | 
O=C(Nc1ccc(F)cc1F)N1CCN(C/C=C/c2ccccc2)CC1 | inconclusive: 7.08 µM [inhibitor, partial curve, poor fit] | 
CCCC(=O)N1CCC1(C)C(=O)NS(=O)(=O)c1ccc(C#N)cc1 (centres undefined) |  | inactive: 7.92%
COc1ccc(C(C[N+](=O)[O-])c2c(-c3ccccc3)cc3ccccn23)c(OC)c1 (centres undefined) |  | inactive: -23.1%

SMILES | Potency | activity change, negative = inhibition
CN(C)c1cc(N/N=C/c2ccc(Cl)cc2)nc(N(C)C)n1 | inconclusive: 11.2 µM [inhibitor, partial curve, poor fit] | 
O=C(Nc1ccc(-c2csc(-c3ccccc3)n2)cc1)c1ccccc1 | inconclusive: 31.6 µM [inhibitor, single point] | 
O=C1c2ccccc2C(Nc2ccc(S(=O)(=O)N3CCCCC3)cc2)N1c1ccccn1 (centres undefined) | inconclusive: 3.55 µM [inhibitor, partial curve, poor fit] | 
Cc1ccccc1NS(=O)(=O)c1ccc(C(=O)N2CCCC2)cc1 | inconclusive: 15.8 µM [inhibitor, single point] | 
C[C@H](c1ccccc1)N1C[C@@H](COCc2ccccc2)Oc2cc(N3CC[C@@H](N(C)C)C3)ccc2S1(=O)=O | inconclusive: 28.2 µM [inhibitor, single point] | 
O=c1c2c3nc4ccccc4nc3n(/N=C/c3ccccn3)c2ncn1-c1ccccc1 | inconclusive: 28.2 µM [inhibitor, partial curve, poor fit] | 
O=C(c1cccc(F)c1)N1CCN(c2cccc(Cl)c2)CC1 | inconclusive: 8.91 µM [inhibitor, partial curve, poor fit] | 
COc1cccc(CN2CCNC(=O)C2CC(=O)NC2CCCCC2)c1OC (centres undefined) | inconclusive: 10 µM [inhibitor, partial curve, poor fit] | 
CCC(CO)Oc1cc(NCc2cccc(C)c2)c2ncn(C(C)C)c2c1 (centres undefined) | inconclusive: 10 µM [inhibitor, single point] | 
CCOC(=O)c1c(C)c(C(=O)N2CCN(C(=O)c3ccco3)CC2)c(C)n1C |  | inactive: 4.42%
Cc1ccc(S(=O)(=O)c2nnn3c2nc(N2CCCC(C)C2)c2cc(Cl)ccc23)cc1C (centres undefined) |  | inactive: 13.2%
COc1ccc(OC)c(S(=O)(=O)NNC(=S)Nc2ccc3c(c2)OCO3)c1 | inconclusive: 22.4 µM [inhibitor, single point] | 
CC(=O)c1c(C)[nH]c(C(=O)N2CCN(c3ccccn3)CC2)c1C |  | inactive: -0.649%
O=C(NC(=S)Nc1ccccc1Cl)C1CC1 | inconclusive: 28.2 µM [inhibitor, single point] | 
COc1ccc(CCNC(=S)Nc2cccc(C)c2)cc1 | inconclusive: 28.2 µM [inhibitor, single point] | 
O=C(CCc1cccc(Cl)c1)N1CCCC(Nc2ccccc2)C1 (centres undefined) | inconclusive: 10 µM [inhibitor, single point] | 
O=C1C(=C(c2ccccc2)c2ccccc2)Nc2ccccc21 | inconclusive: 22.4 µM [inhibitor, single point] | 
Cc1cccc(-c2nc(CSCC(=O)N3CCN(c4ccccn4)CC3)c(C)o2)c1 | inconclusive: 11.2 µM [inhibitor, single point] | 
Cc1ccc(S(=O)(=O)NCCNS(=O)(=O)c2ccc(C)cc2)cc1 |  | inactive: -0.755%
COc1ccc(C=C2CS(=O)(=O)CC(=Cc3ccc(OC)cc3)C2=O)cc1 | inconclusive: 6.31 µM [inhibitor, partial curve, poor fit] | 
